Data published in the supplement of paper PMC12217912.
The other results are listed elsewhere or left out. Sequences were assembled here from the parent chain. Values near 0.05 are background.

B1: TEV protease; numbered along this chain (parent)
chain: MGESLFKGPRDYNPISSSICHLTNESDGHTTSLYGIGFGPFIITNKHLFRRNNGTLVVQSLHGVFKVKDTTTLQQHLVDGRDMIIIRMPKDFPPFPQKLKFREPQREERICLVTTNFQTKSMSSMVSDTSCTFPSGDGIFWKHWIQTKDGQCGSPLVSTRDGFIVGIHSASNFTNTNNYFTSVPKNFMELLTNQEAQQWVSGWRLNADSVLWGGHKVFMVKPEEPFQPVKEATQL

Variants of: B1
Assay: raw area under fraction-flipped curve 0-4 h after induction (AUC4h, not background-subtracted), DNA-recorder readout of cleavage of the substrate (dimensionless); higher = more cleavage of the substrate by the protease variant
Conditions: temperature: 34 °C; time window: 0-4 h after rhamnose induction
Description: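 In vivo DNA recorder in E. coli TOP10(DE3) ΔrhaA at 34 °C. Each TEVp single-site mutant (parent TEVp 0) is paired with a single-site variant of the 7-mer TEVs (canonical ENLYFQ|S). The substrate sits between flexible linkers in a Bxb1-sfGFP-TEVs-SsrA fusion, so cleavage stabilises Bxb1 and speeds flipping of a recombination array, read by NGS. The value is the raw area under the fraction-flipped curve over 0-4 h after rhamnose induction (AUC4h), with ≥20 reads per time point. It is not background-subtracted; inactive controls average about 0.047.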
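Further: Bxb1 expression induced with 0.2% (w/v) L-rhamnose at OD600 near 0.5, cultures sampled hourly, flipped fraction per protease–substrate barcode pair counted by paired-end Illumina sequencing.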

Row | Variant | area with substrate ENLYFAS | area with substrate ENLYFCS | area with substrate ENLYFIS | area with substrate ENLYFLS | area with substrate ENLYFPS | area with substrate ENLYFSS | area with substrate ENLYFDS | area with substrate ENLYFFS | area with substrate ENLYFMS | area with substrate ENLYFVS
1 | Q97W | 0.0457 | 0.0645 | 0.0483 | 0.0673 | 0.0629 | 0.0628 | – | – | – | –
2 | Q97D | 0.0432 | 0.0624 | – | – | – | – | 0.0473 | 0.0902 | 0.0894 | 0.0493
3 | E223D | 0.0619 | – | 0.0486 | – | – | – | – | – | – | –
4 | S158V | 0.0308 | – | 0.0589 | 0.0378 | 0.0465 | 0.0543 | – | 0.0641 | 0.0477 | 0.057
5 | H215L | 0.0634 | – | 0.0709 | 0.0696 | 0.0613 | 0.0519 | – | 0.0532 | 0.0669 | 0.072
6 | S124C | 0.0613 | – | 0.0569 | – | 0.067 | 0.058 | – | – | – | 0.035
7 | V67G | 0.0774 | – | 0.046 | – | – | – | – | 0.0603 | 0.0478 | –
8 | P89V | 0.0528 | – | – | 0.0493 | 0.0432 | – | – | 0.0624 | 0.0476 | –
9 | K100Q | 0.0477 | – | 0.0843 | – | 0.0677 | – | – | 0.0587 | 0.0719 | –
10 | E103S | 0.0454 | – | 0.0515 | – | 0.0589 | – | – | – | – | –
11 | E103I | 0.0596 | 0.0594 | 0.0543 | 0.0627 | 0.0517 | 0.0553 | – | – | 0.0726 | 0.0571
12 | E103D | 0.0711 | – | 0.0525 | 0.0936 | 0.0561 | – | 0.0623 | – | 0.0646 | –
13 | G150A | 0.0617 | – | 0.0545 | – | 0.0655 | – | – | – | – | –
14 | S182F | 0.0524 | – | 0.0539 | – | – | 0.056 | 0.0552 | 0.0612 | 0.0648 | 0.0497
15 | T181H | 0.0576 | – | 0.0633 | – | – | – | – | – | – | –
16 | T30D | 0.0865 | 0.0545 | – | – | 0.0493 | – | – | 0.0627 | 0.0743 | –
17 | R81A | 0.0459 | 0.0507 | 0.051 | – | 0.0622 | 0.0611 | 0.0547 | 0.0619 | 0.06 | –
18 | L61T | 0.0729 | – | 0.0716 | – | 0.0665 | – | – | – | 0.0674 | –

Row | Variant | area with substrate ENLYFAS | area with substrate ENLYFCS | area with substrate ENLYFIS | area with substrate ENLYFLS | area with substrate ENLYFPS | area with substrate ENLYFSS | area with substrate ENLYFDS | area with substrate ENLYFFS | area with substrate ENLYFMS | area with substrate ENLYFVS
19 | L5H | 0.0722 | – | 0.0642 | – | 0.0614 | 0.0656 | – | 0.0769 | 0.0618 | –
20 | S169K | 0.0684 | 0.0936 | – | 0.0569 | 0.0329 | 0.0457 | – | 0.0481 | – | 0.0699
21 | I85A | 0.0556 | – | – | – | – | 0.0588 | – | – | 0.0462 | –
22 | W199S | 0.0488 | 0.0571 | 0.0598 | 0.0702 | 0.0546 | 0.0595 | – | – | – | 0.0658
23 | W199Y | 0.0628 | 0.0444 | 0.0511 | – | – | – | – | 0.0573 | – | –
24 | L205Y | 0.0405 | 0.0553 | 0.0554 | 0.0785 | 0.0585 | – | – | – | 0.0599 | –
25 | R50W | 0.0676 | – | 0.065 | – | 0.0622 | – | 0.0626 | 0.042 | 0.0721 | –
26 | G202I | 0.0364 | 0.0596 | 0.0549 | – | 0.0538 | 0.0484 | – | – | 0.0353 | –
27 | V165I | 0.0617 | – | 0.0658 | – | – | 0.0824 | 0.063 | 0.0679 | – | –
28 | D79Q | 0.057 | – | – | – | – | – | – | – | – | 0.0567
29 | Q75D | 0.0501 | 0.0384 | 0.0577 | – | 0.054 | – | 0.0831 | 0.0492 | 0.0621 | –
30 | T44M | 0.0402 | 0.0483 | 0.0454 | – | 0.0581 | 0.0498 | 0.0576 | 0.0565 | – | –
31 | F101E | 0.0458 | – | 0.0409 | – | – | 0.0417 | – | – | – | –
32 | F101H | 0.0463 | 0.0451 | – | – | 0.0511 | – | – | – | 0.0511 | –
33 | F101I | 0.0379 | – | 0.0526 | – | – | – | – | – | – | 0.0582
34 | P94N | 0.0555 | – | 0.0543 | 0.0587 | – | – | – | 0.06 | 0.0777 | –
35 | K98V | 0.0538 | 0.0648 | 0.0547 | – | 0.0684 | – | 0.0514 | 0.0589 | 0.0641 | –
36 | P93C | 0.0465 | – | – | – | – | 0.073 | – | – | 0.0618 | 0.0392

Same assay, conditions: temperature: 34 °C; time window: 0-4 h after rhamnose induction

Row | Variant | area with substrate ENLYFES | area with substrate ENLYFGS | area with substrate ENLYFHS | area with substrate ENLYFNS | area with substrate ENLYFRS | area with substrate ENLYFWS | area with substrate ENLYFYS | area with substrate ENLYFKS | area with substrate ENLYFTS
37 | E223D | 0.0756 | – | – | – | – | – | – | – | –
38 | S158V | 0.0475 | 0.049 | 0.0534 | 0.0533 | 0.0695 | 0.0546 | 0.044 | – | –
39 | H215L | 0.0643 | 0.0634 | – | – | 0.0421 | 0.0894 | 0.0489 | 0.0539 | 0.0651
40 | S124C | – | 0.0369 | 0.0568 | 0.0645 | 0.0595 | – | 0.0598 | – | –
41 | V67G | 0.053 | – | 0.0494 | 0.0494 | 0.0404 | 0.0535 | – | 0.0347 | –
42 | P89V | – | 0.0574 | – | – | – | 0.0586 | – | 0.036 | 0.0516
43 | K100Q | – | – | 0.0493 | – | – | – | 0.056 | 0.0631 | –
44 | E103S | – | – | – | 0.0443 | 0.0442 | – | – | – | –
45 | E103I | 0.0367 | – | – | 0.0632 | – | 0.0647 | 0.0557 | – | 0.067
46 | E103D | – | – | 0.0618 | 0.0628 | 0.0607 | 0.0071 | – | 0.0611 | –
47 | G150A | 0.062 | – | – | – | – | – | – | – | 0.0599
48 | S182F | 0.0562 | – | 0.0406 | 0.0564 | 0.0501 | – | 0.0392 | – | –
49 | T181H | 0.0607 | 0.0466 | – | – | 0.0595 | 0.033 | 0.0303 | – | 0.0633
50 | T30D | 0.054 | – | 0.0562 | – | 0.0644 | – | – | 0.0407 | 0.0602
51 | R81A | 0.0528 | – | 0.0617 | – | 0.0619 | 0.0631 | – | – | 0.0454
52 | L61T | 0.0536 | – | 0.0717 | 0.0982 | – | – | 0.0589 | 0.0816 | –
53 | L5H | 0.0442 | – | – | – | – | 0.0479 | – | 0.072 | –

Row | Variant | area with substrate ENLYFES | area with substrate ENLYFGS | area with substrate ENLYFHS | area with substrate ENLYFNS | area with substrate ENLYFRS | area with substrate ENLYFWS | area with substrate ENLYFYS | area with substrate ENLYFKS | area with substrate ENLYFTS
54 | S169K | 0.0348 | – | – | – | – | 0.032 | – | – | –
55 | I85A | 0.0604 | – | – | 0.0541 | 0.0624 | – | – | – | 0.03
56 | W199S | 0.0624 | – | 0.0567 | – | 0.0676 | – | 0.0523 | – | –
57 | W199Y | – | – | – | – | – | 0.056 | – | – | –
58 | L205Y | 0.0744 | – | – | 0.0609 | 0.0643 | 0.0481 | 0.0604 | 0.0588 | 0.0701
59 | R50W | 0.0677 | 0.0617 | – | 0.0602 | 0.0538 | 0.0571 | 0.0621 | – | 0.0406
60 | G202I | 0.0417 | – | – | 0.0661 | – | – | – | 0.0535 | 0.0717
61 | V165I | 0.0515 | 0.0659 | – | – | – | 0.0509 | – | – | –
62 | D79Q | – | – | – | – | – | 0.112 | 0.0553 | 0.057 | –
63 | Q75D | – | – | – | – | 0.0591 | 0.0498 | – | – | 0.0582
64 | T44M | 0.0521 | – | 0.0369 | 0.0551 | – | 0.0459 | 0.0651 | 0.0657 | 0.0438
65 | F101E | 0.055 | 0.0464 | – | 0.0424 | – | – | – | – | 0.0489
66 | F101H | – | 0.0606 | – | 0.0328 | – | 0.0397 | 0.0475 | 0.0591 | 0.0408
67 | F101I | – | – | – | – | 0.0347 | – | – | – | –
68 | P94N | – | 0.0632 | – | – | 0.0577 | – | 0.0647 | 0.059 | –
69 | K98V | 0.079 | – | – | – | – | 0.0495 | – | 0.0514 | 0.0685
70 | P93C | – | – | 0.0641 | – | – | 0.0282 | – | 0.0455 | –
